From PubChem BioAssay AID488969 (Vanderbilt High Throughput Screening Facility, 2010)
In all, about 110,000 compounds were measured (“z-score”: median about -0.1, highest 2% from about 2 on). Some of the results follow. The source made the active and inactive calls.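 Rule for the calls: active = z-score in the third read window above 3 or below -3; inactive = the rest.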

These compounds were tested against Metabotropic glutamate receptor 8 (Rattus norvegicus) (UniProt P70579) (assay: rat mGluR8 modulators via GIRK flux, primary screen, cell-based, thallium flux, HTS (AID 488969)). Details: HEK293 rat mGluR8, GIRK (G protein-gated inwardly rectifying potassium channel) thallium flux, FluoZin2; at 10 µM; stronger effect = higher value.
UniProt P70579, sequence (P70579 whole entry, looked up): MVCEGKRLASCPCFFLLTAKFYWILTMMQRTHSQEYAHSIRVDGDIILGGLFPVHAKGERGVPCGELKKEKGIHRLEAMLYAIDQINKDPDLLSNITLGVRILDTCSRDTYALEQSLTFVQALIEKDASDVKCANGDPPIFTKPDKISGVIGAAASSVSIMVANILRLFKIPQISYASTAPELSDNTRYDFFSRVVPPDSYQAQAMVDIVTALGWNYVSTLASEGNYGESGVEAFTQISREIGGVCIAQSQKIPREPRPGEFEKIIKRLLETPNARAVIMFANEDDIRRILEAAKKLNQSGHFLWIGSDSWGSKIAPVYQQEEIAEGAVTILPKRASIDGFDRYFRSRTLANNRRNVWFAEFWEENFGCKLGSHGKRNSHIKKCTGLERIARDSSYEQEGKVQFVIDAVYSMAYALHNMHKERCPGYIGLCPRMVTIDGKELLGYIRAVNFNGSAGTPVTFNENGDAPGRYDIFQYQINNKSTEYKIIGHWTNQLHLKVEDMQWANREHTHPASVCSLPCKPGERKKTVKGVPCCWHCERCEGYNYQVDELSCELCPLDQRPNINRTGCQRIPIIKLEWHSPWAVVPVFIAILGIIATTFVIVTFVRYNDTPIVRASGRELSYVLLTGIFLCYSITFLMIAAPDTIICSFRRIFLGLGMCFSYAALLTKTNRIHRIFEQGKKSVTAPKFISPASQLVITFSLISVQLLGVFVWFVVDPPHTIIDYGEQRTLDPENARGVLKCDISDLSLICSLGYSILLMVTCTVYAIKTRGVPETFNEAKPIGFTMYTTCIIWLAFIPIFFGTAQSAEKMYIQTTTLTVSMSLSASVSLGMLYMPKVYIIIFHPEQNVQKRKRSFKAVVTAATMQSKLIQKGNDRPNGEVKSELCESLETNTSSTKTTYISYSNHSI
`CCOC(=O)C(NC(C)=O)C(OC(C)=O)c1cccc(N(CCCl)CCCl)c1` (stereo unspecified) showed a z-score of 0.00624.
With `C=CCNC(=O)c1c(N)n(Cc2ccco2)c2nc3ccccc3nc12` the z-score was -0.402.
`CN1C(=O)/C(=C\N2CCc3ccccc32)C(=O)NC1=S` was tested, and the z-score was -0.284.
In the case of `CC(=O)N1CCN(c2ccc(N=Cc3c(O)n(-c4ccc(Cl)cc4)c(=O)[nH]c3=O)cc2)CC1`, the z-score is reported as -0.203.
With `CCN(CC)CCCN=C(C)c1c(O)n(C2CCCCC2)c(=O)[nH]c1=O` the z-score was -0.296.
`CCc1nc2ccccc2c(=O)n1-c1cccc(OC)c1` was tested, and the z-score was -0.521.
`O=c1[nH]c(=O)n(-c2cccc3ccccc23)c(O)c1/C=N/N1CCCCC1c1cccnc1` (stereo unspecified) gave a z-score of 0.183.
`CN1CCN(c2ccc(N)cc2)CC1` was tested, and the z-score was 0.349.
`CC(=O)N1CN2CN(C(C)=O)CC(C(=O)c3ccccc3)(C2)C1` showed a z-score of 0.471.
`Cc1nn(-c2ccccc2)c(Cl)c1C1C(C#N)=C(N)Oc2c1c(=O)oc1ccccc21` (stereo unspecified) showed a z-score of -0.889.
With `CC(=NCCO)c1c(O)n(C)c(=O)n(C)c1=O` the z-score was 0.391.
In the case of `CC(C)OP(=O)(OC(C)C)C(O)c1cccnc1` (stereo unspecified), the z-score is reported as -0.136.
`CCOC(=O)N(CC)c1ccc(C(O)(C(=O)OC)C(F)(F)F)cc1` (stereo unspecified) was tested, and the z-score was -0.282.
`O=C(COc1ccc(Br)cc1)N1CCN(Cc2c[nH]c3ccccc23)CC1` gave a z-score of 0.613.
`COc1ccc(-c2nc3ccccc3c(=O)n2-c2cccnc2)cc1` was tested, and the z-score was -0.0323.
Work on `COc1ccc(-n2c(O)c(C=Nc3c(C)n(C)n(-c4ccccc4)c3=O)c(=O)[nH]c2=O)cc1` yielded a z-score of -0.0439.
For `O=P(NS(=O)(=O)c1ccccc1)(Oc1ccccc1)Oc1ccccc1`, the z-score was -0.453.
For `CCOc1ccc(-n2c(-c3ccoc3)nc3ccccc3c2=O)cc1`, the z-score was -0.321.
`CC1CCCCN1CC(=O)c1ccc2cc[nH]c2c1` (stereo unspecified) gave a z-score of -0.179.
`O=c1[nH]c(=O)n(-c2cccc3ccccc23)c(O)c1C=NCc1ccc2c(c1)OCO2` was tested, and the z-score was 0.0424.
Compound `CN1CSC(=S)N(C)C1` has a z-score of 1.21.
`Cc1cc(/C=C2\C(=O)NC(=O)N(c3ccc(Cl)cc3)C2=O)c(C)n1-c1sc2c(c1C#N)CCCC2` was tested, and the z-score was 0.0605.
`Nc1ccc2c(c1)oc1ccccc12` gave a z-score of 0.0995.
Compound `N#CC1=C(N)Oc2c(c(=O)oc3ccccc23)C1c1ccccc1OC(=O)c1cccs1` (stereo unspecified) has a z-score of -0.275.
`OC(Cn1c2ccccc2c2ccccc21)C[n+]1ccccc1` (stereo unspecified) was tested, and the z-score was -0.244.
For `CC(C)CCC1(CN2CCCC2=O)C(=O)NC(=O)NC1=O`, the z-score was 0.137.
`COc1ccc(OP(=O)(Nc2ccccc2)Nc2ccccc2)cc1` showed a z-score of -0.396.
For `O=C(c1c[nH]cc1-c1ccccc1)c1cccc2ccccc12`, the z-score was 0.261.
`COc1ccc(/C=N/N=C(/N)N[N+](=O)[O-])c(OC)c1` showed a z-score of -0.203.
In the case of `O=C(Cc1ccccc1)Oc1ccccc1N1C(=O)CCC1=O`, the z-score is reported as 0.366.
Compound `CCC(=O)c1cc(F)c(N2CCN(CC)CC2)cc1C` has a z-score of -0.2.
`O=C1/C(=C/c2ccc3c(c2)OCO3)N2CCC1CC2` showed a z-score of -0.291.
For `O=S(=O)(c1ccccc1)N1CC1c1ccccc1` (stereo unspecified), the z-score was -0.511.
In the case of `CN(Cc1ccccc1)C(=C(Cl)Cl)/C(=C1/NCCN1Cc1ccc(Cl)nc1)[N+](=O)[O-]`, the z-score is reported as -0.41.
With `Cn1c(O)c(C=NC2CC3CCC2(C)C3(C)C)c(=O)[nH]c1=O` (stereo unspecified) the z-score was 0.471.
`Cc1cc(=O)n(-c2ccccc2)n1-c1ccccc1` showed a z-score of 0.00242.
`C=CCn1c(=O)c(C=Nc2cccc([N+](=O)[O-])c2)c(O)n(CCCC)c1=O` was tested, and the z-score was -0.737.
`Cc1nn(Cc2ccccc2)c(Cl)c1C(=O)NC1CCCc2ccccc21` (stereo unspecified) was tested, and the z-score was -0.276.
`CCC(=Nc1ccccc1NC(C)=O)c1c(O)n(C)c(=O)n(C)c1=O` showed a z-score of -0.32.
In the case of `C[N+]1=C(/C=C/Nc2ccccc2)C(C)(C)c2ccccc21`, the z-score is reported as -1.45.
In the case of `O=c1c2ccccc2nc(-c2ccccc2)n1-c1ccncc1`, the z-score is reported as -0.0159.
`CCOc1ccc(N2C(=O)NC(=O)/C(=C\c3cc(OC)c(OC)cc3[N+](=O)[O-])C2=O)cc1` gave a z-score of 1.05.
With `Cc1cccc(-n2c(O)c(/C=N/Nc3nc4c(c(=O)n(C)c(=O)n4C)n3C)c(=O)[nH]c2=S)c1` the z-score was -0.186.
`O=C(c1cc([N+](=O)[O-])ccc1N1CCNCC1)N1CCOCC1` was tested, and the z-score was -0.253.
`CC(C(=O)c1c[nH]c2ccccc12)N1CCSCC1` (stereo unspecified) showed a z-score of -0.0842.
In the case of `O=C1NC(=O)N(Cc2ccco2)C(=O)/C1=C/c1cccn1CCOc1ccccc1Cl`, the z-score is reported as -0.183.
Work on `CC(=O)OC1N=C(c2ccccc2)c2ccccc2NC1=O` (stereo unspecified) yielded a z-score of 0.273.
Compound `CC(C(=O)Nc1ccc(Br)cc1C(=O)c1ccccc1)N1CCCCC1` (stereo unspecified) has a z-score of -0.426.
Work on `CC(C)NS(=O)(=O)c1ccc(OCC(=O)N2CCN(C)CC2)cc1` yielded a z-score of -0.134.
`COC(=O)c1c(C)n(Cc2ccco2)c2ccc(O)cc12` gave a z-score of 0.101.
With `O=C(O)c1cc2ccccc2oc1=O` the z-score was -0.232.
In the case of `Cc1c(C(=O)N2CCC3(CC2)OCCO3)oc2ccc(S(=O)(=O)N3CCOCC3)cc12`, the z-score is reported as 0.775.
`Cc1ccccc1N1C(=O)NC(=O)/C(=C\c2cc(Br)c(N3CCOCC3)o2)C1=O` gave a z-score of -0.202.
Compound `O=C(Nc1ccc2ccccc2c1)c1nn(C23CC4CC(CC(C4)C2)C3)cc1Br` has a z-score of 0.0576.
In the case of `O=c1c2ccccc2nc(-c2ccco2)n1-c1cccnc1`, the z-score is reported as 0.0422.
Compound `CCC(=NCC1CCCO1)c1c(O)n(-c2ccc(Cl)cc2)c(=O)[nH]c1=O` (stereo unspecified) has a z-score of -0.933.
`O=P1(Nc2cccnc2)COc2ccccc2OC1` gave a z-score of -0.0117.
Compound `COc1ccccc1N1CCN(Cc2c(F)cccc2Cl)CC1` has a z-score of 0.521.
`CC(=O)OC1N=C(c2ccccc2)c2cc(Br)ccc2N(C)C1=O` (stereo unspecified) was tested, and the z-score was -0.255.
Work on `CC(C)N1CCN(c2ccc(O)cc2)CC1` yielded a z-score of 1.23.
`CCc1ccc(N2C(=O)NC(=O)/C(=C/c3cccn3CCOc3ccc(C(C)CC)cc3)C2=O)cc1` (stereo unspecified) gave a z-score of 0.766.
For `Cc1ccc(C2N(c3cc(C)on3)C(=O)C3CCCN32)cc1` (stereo unspecified), the z-score was 0.398.
Compound `CCCCCn1c(=O)c(C(=O)NCc2ccccn2)c(O)c2ccccc21` has a z-score of -0.154.
`CN1C(=O)N(C)C(=O)C2(Cc3cc(N)ccc3N3CCN(c4ccccc4F)CC32)C1=O` (stereo unspecified) showed a z-score of 0.339.
`O=C1C2CCCN2C(c2cccnc2)N1c1cccc(Cl)c1` (stereo unspecified) showed a z-score of -0.598.
Work on `COc1ccc(CCN(C)Cc2c(F)cccc2F)cc1OC` yielded a z-score of 0.419.
Work on `O=C1NC(=O)N(c2ccc3c(c2)OCO3)C(=O)/C1=C/c1ccc(N2CCCCC2)o1` yielded a z-score of -0.618.
`CC12CCCCC1N(O)CN2O` (stereo unspecified) gave a z-score of 0.155.
`C=CCn1c(O)c(C(C)=NCCC(c2ccccc2)c2ccccc2)c(=O)[nH]c1=O` was tested, and the z-score was -0.145.
In the case of `CN=C(SCc1ccccc1)c1c(O)n(C)c(=O)n(C)c1=O`, the z-score is reported as 0.0137.
`Cc1ccc(N(C)C(=O)Oc2ccc(C(=O)c3ccc(Cl)cc3)cc2)cc1` showed a z-score of 0.23.
For `CC(=O)Nc1cc(C(=O)N2CCC3(CC2)OCCO3)ccc1S(=O)(=O)c1ccc(C)cc1`, the z-score was -0.0526.
`CCSc1nnc([C@@H](N)Cc2c[nH]c3ccccc23)o1` gave a z-score of 0.338.
Work on `CN1C(=O)C(Cc2cccc3ccccc23)C(=O)N(C)C1=O` yielded a z-score of -0.744.
`O=c1[nH]c(=O)n(-c2cccc(Cl)c2)c(O)c1C=NCCN1CCCCC1` showed a z-score of -0.625.
For `CCCCCCN=C(C)c1c(O)n(CCCC)c(=O)[nH]c1=O`, the z-score was -2.32.
Compound `O=C(C1CC(c2ccc(F)cc2)=NO1)N1CCC2(CC1)OCCO2` (stereo unspecified) has a z-score of -0.112.
With `O=C1NC(=S)N(c2ccccc2F)C(=O)/C1=C\c1cccs1` the z-score was -0.144.
`COc1ccc(C(=O)C2(C)N(O)C(C)C(c3cccs3)=[N+]2[O-])cc1` (stereo unspecified) was tested, and the z-score was 0.219.
With `CCOC(=O)c1nc2ccccc2c(=O)n1-c1cccc(C)c1` the z-score was 0.0451.
`CCC(C)OC(=O)c1c(N)n(Cc2cccs2)c2nc3ccccc3nc12` (stereo unspecified) gave a z-score of -0.439.
In the case of `CCC(CC)C(=O)NC1CCSC1=O` (stereo unspecified), the z-score is reported as -0.27.
`CN(C)C(=O)Oc1ccc(Cl)c2ccccc12` gave a z-score of -0.361.
For `CC12CCCCC1=[N+]([O-])CN2O` (stereo unspecified), the z-score was 0.377.
`CCOC(=O)C(O)(c1ccc(N(C)C(=O)c2ccc(Cl)c(Cl)c2)cc1)C(F)(F)F` (stereo unspecified) was tested, and the z-score was -1.02.
Compound `N[C@@H](Cc1c[nH]c2ccccc12)c1nnc(SCc2ccc(F)cc2)o1` has a z-score of -0.111.
In the case of `CC(=O)OC1(c2ccc(C)cc2)CN2CCC1c1ccccc12` (stereo unspecified), the z-score is reported as 0.393.
Work on `OC12CCCCC1C(c1ccccc1)NCC2` (stereo unspecified) yielded a z-score of -0.509.
`O=c1[nH]c(=S)n(Cc2ccco2)c(O)c1C=NCc1cccs1` gave a z-score of -0.815.
`COc1ccc(-c2nc(CSCC(=O)N3CCC4(CC3)OCCO4)c(C)o2)cc1OC` showed a z-score of -0.166.
`COC(=O)C(O)(c1c(C)[nH]c2ccccc12)C(F)(F)F` (stereo unspecified) was tested, and the z-score was 0.0454.
In the case of `S=C1CN=C(c2ccccc2Cl)c2cc(Cl)ccc2N1`, the z-score is reported as active: 14.6.
Work on `C=Cn1ccnc1P(=S)(c1cc(N(CC)CC)ns1)c1nccn1C=C` yielded a z-score of 0.0631.
`Clc1cccc(Cl)c1CN1CCN(c2ccccc2)CC1` gave a z-score of -1.12.
Compound `CCOC(=O)C(=O)NC1CCSC1=O` (stereo unspecified) has a z-score of -0.109.
Work on `O=c1[nH]c(=O)n(-c2ccccc2Cl)c(O)c1C=NCCN1CCCCC1` yielded a z-score of 0.707.
For `O=c1[nH]c(=O)n(CCc2ccccc2)c(O)c1C=NCc1ccc2c(c1)OCO2`, the z-score was -0.412.
In the case of `N=c1sccn1Cc1ccc(Cl)cc1Cl`, the z-score is reported as 0.151.
`COc1ccccc1N1CCN(Cc2c(F)cccc2F)CC1` showed a z-score of -0.0979.
For `Cc1ccc2c(c1)=C/C(=C\c1c(O)[nH]c(=O)[nH]c1=O)C(=O)N=2`, the z-score was -0.209.
In the case of `Nc1ccc(S(=O)(=O)N2CC3CC(C2)c2cccc(=O)n2C3)cc1` (stereo unspecified), the z-score is reported as -0.29.
Compound `CC(C)Cn1cc(C(=O)N2CCC3(CC2)OCCO3)c2c3ccccc3n(C)c2c1=O` has a z-score of -0.259.
For `CCOC(=O)C(NC(=O)CCl)(Nc1ccc(C(O)(C(=O)OCC)C(F)(F)F)cc1)C(F)(F)F` (stereo unspecified), the z-score was 0.218.
`C=Cn1ccnc1P(=S)(c1ccn(C)c1)c1nccn1C=C` showed a z-score of 1.8.
`CC(NCc1cccc(Cl)c1Cl)C(O)c1ccccc1` (stereo unspecified) was tested, and the z-score was 0.177.
`N#CCC(=O)NN1Cc2ccccc2C1=N` showed a z-score of -0.155.
With `CCOP(=O)(OCC)C(NC(=O)c1ccc(C)cc1)=C(Cl)Cl` the z-score was -0.254.
Work on `CN1C(=O)/C(=C\c2ccc(N3CCCCC3)o2)C(=O)NC1=S` yielded a z-score of -0.412.
With `CCOP(=S)(OCC)c1ccc(N(C)C)cc1` the z-score was -0.539.
Compound `CCOc1ccc(N=Cc2c(O)n(C(C)(C)C)c(=O)[nH]c2=O)cc1` has a z-score of -0.283.
`CCc1nc2ccccc2c(=O)n1-c1ccccc1[N+](=O)[O-]` showed a z-score of -0.229.
